Source: PMC12136788
The other results are listed elsewhere or left out.

T1: UNK ZnF1-3 (human, UniProt Q9C0B0 31-174)
T1 sequence: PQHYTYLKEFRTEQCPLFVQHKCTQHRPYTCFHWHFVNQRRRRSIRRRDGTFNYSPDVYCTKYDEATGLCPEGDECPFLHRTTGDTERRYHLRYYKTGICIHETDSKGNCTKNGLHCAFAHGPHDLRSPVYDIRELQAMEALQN

B1: 128103536_128109129_3178_CDS_ENSG00000165219_ENST00000394104|human|control|control (ssRNA)
RNA: GGGAGUUCUACAGUCCGACGAUCAGCUUGUGCACUGAGUCUAGGGCUGGGAUCAUCUGUGAGUGUUGAGAAUCUGUCAGGCCCCAGAUCAUCUUUGUCUUUUUCUUGUUUUUCUUUCUUUCUAAAUGGUAUAGGAGCUUUAGGCAACAGAGGAUUGAGCAUCA
B2: chr7:44244176:44244177:+_ENSG00000106636_ENST00000223369|hu_hu|FALSE|FALSE (ssRNA)
RNA: GGGAGUUCUACAGUCCGACGAUCACUAUCAUUCCGGACGUAGACGUGGCACAGAUAGUCUUGUUCUUUGACAGAAGCUCUAGUGCCUUUCGAUGAGCGCUCCACAAUCAGUUGACUCGUGAAGGUCAUGAAUUCCUGAACGCUCAACAGAGGAUUGAGCAUCA
B3: chr8:97153689:97153690:+_ENSMUSG00000050079_ENSMUST00000060389|mus_mus|motif|central (ssRNA)
RNA: GGGAGUUCUACAGUCCGACGAUCGUCUAGUAACAAGGUUAUAACAGCUGGUCCCAAUGGAUCUUCCAAUGGAAUAACUCGGAUUAAAGACUGGACAACAUCCAACCAUCCUUCAUCUGUUUCUGCCAUUUCAUGUAAUGUAAUCAACAGAGGAUUGAGCAUCA
B4: chr2:65539780:65539781:-_ENSG00000198369_ENST00000356388|hu_mus|FALSE|FALSE (ssRNA)
RNA: GGGAGUUCUACAGUCCGACGAUCGUUUGUAAAAUAAUUGAGUAAAAUUUAUCUCACUGAUGUGUUAUUCUAAGUAUUGCUAGGAUUUUAGAAGUGGCAAUGCAAUUCUAAAAAGUCCUAUUUUUCGGGUCAACUGGGCAAGCUCAACAGAGGAUUGAGCAUCA
B5: chr18:10000604:10000605:-_ENSMUSG00000047879_ENSMUST00000092096|mus_mus|FALSE|FALSE (ssRNA)
RNA: GGGAGUUCUACAGUCCGACGAUCAGAGACCAUUUUCUCUUGAAGUUCUGGUGUGCAGAGUUCAUACACAUCCAACAUAAGAGGAAACUUAACAUCCUUAAGAACUUUGGCGUUCACAGAUUCUUUCUCUUUAUAAAAAAAUCGCAACAGAGGAUUGAGCAUCA
B6: chr13:45008927:45008928:-_ENSG00000102804_ENST00000261489|perfect_dup|motif|central (ssRNA)
RNA: GGGAGUUCUACAGUCCGACGAUCCGGACUGGCCAGCGUCUUCAGCAGAUUGUUCUCCUGCUCCAGCUGGGAGUUUUUCUCGGUUAGUUCUUUGAUCUGCUCCUUCAGAACUUCCACUUCCUCCCUCACCGCAUACAUCAAAUGCAACAGAGGAUUGAGCAUCA

These binders were tested against T1, UNK ZnF1-3 (assay: nsRBNS (natural sequence RNA bind-n-seq); RBNS binding buffer (assumed for nsRBNS): 25 mM Tris pH 7.5, 150 mM KCl, 3 mM MgCl2, 0.01% Triton X-100, 500 ug/ml BSA, 20 U/ml SUPERase-In, 4 C; UNK is unkempt and MSI1 is Musashi-1; names of the RNAs are library labels; protein concentration not given here; high values mean tight binding).
Binder B1 has a binding signal of 0.996 enrichment R. With B2 the binding signal was 0.331 enrichment R. B3 showed a binding signal of 0.757 enrichment R. B4 was tested, and the binding signal was 0.813 enrichment R. B5 showed a binding signal of 0.557 enrichment R. With B6 the binding signal was 0.949 enrichment R.
